Reference: publication PMC11551953 (2024)

Molecular target: bovine serum albumin (BSA), wild type (bovine, UniProt P02769)
Chain of UniProt P02769 (P02769 25-607): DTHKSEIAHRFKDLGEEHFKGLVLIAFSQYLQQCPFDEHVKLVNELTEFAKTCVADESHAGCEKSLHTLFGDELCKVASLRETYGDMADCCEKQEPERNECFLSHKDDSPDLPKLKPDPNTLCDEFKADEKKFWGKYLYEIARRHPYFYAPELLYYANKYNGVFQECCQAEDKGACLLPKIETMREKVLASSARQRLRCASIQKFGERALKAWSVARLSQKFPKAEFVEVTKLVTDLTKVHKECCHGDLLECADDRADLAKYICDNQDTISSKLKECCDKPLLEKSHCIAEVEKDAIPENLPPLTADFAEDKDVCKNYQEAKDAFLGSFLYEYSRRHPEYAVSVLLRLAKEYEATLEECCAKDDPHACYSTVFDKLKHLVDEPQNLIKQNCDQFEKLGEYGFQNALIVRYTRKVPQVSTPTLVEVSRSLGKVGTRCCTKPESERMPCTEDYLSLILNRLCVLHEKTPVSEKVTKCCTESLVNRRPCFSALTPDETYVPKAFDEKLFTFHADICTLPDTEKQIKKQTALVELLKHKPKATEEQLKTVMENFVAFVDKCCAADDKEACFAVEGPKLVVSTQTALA

- Kd: 141 µM
B1: GFP(ELL)4 (designed binder)
chain: MELLELLELLELLAFNSHNVYITADKQKNGIKVNFTVRHNVEDGSVQLADHYQQNTPIGDGPVLLPDNHYLSTQTVLSKDPNEKRDHMVLHEYVNAAGITHGMDELYKGGSGGTMSKGEELFTGVVPILVELDGDVNGHKFSVRGEGEGDATNGKLTLKFICTTGKLPVPWPTLVTTLSYGVQCFSRYPDHMKQHDFFKSAMPEGYVQERTISFKDDGTYKTRAVVKFEGDTLVNRIELKGTDFKEDGNILGHKLEYN
